{
  "source": "paper PMC4336329",
  "about": "(PLoS ONE, 2015)",
  "note": "The campaign covered roughly 310,000 compounds. About 2,200 (0.71%) showed an effect of 50% or more. Effects have a minus sign here. Some of the results follow.",
  "data": [
    {"biological_target": "human ether-à-go-go-related gene (hERG) potassium channel (human, UniProt Q12809)", "sequence (Q12809 whole entry, looked up)": "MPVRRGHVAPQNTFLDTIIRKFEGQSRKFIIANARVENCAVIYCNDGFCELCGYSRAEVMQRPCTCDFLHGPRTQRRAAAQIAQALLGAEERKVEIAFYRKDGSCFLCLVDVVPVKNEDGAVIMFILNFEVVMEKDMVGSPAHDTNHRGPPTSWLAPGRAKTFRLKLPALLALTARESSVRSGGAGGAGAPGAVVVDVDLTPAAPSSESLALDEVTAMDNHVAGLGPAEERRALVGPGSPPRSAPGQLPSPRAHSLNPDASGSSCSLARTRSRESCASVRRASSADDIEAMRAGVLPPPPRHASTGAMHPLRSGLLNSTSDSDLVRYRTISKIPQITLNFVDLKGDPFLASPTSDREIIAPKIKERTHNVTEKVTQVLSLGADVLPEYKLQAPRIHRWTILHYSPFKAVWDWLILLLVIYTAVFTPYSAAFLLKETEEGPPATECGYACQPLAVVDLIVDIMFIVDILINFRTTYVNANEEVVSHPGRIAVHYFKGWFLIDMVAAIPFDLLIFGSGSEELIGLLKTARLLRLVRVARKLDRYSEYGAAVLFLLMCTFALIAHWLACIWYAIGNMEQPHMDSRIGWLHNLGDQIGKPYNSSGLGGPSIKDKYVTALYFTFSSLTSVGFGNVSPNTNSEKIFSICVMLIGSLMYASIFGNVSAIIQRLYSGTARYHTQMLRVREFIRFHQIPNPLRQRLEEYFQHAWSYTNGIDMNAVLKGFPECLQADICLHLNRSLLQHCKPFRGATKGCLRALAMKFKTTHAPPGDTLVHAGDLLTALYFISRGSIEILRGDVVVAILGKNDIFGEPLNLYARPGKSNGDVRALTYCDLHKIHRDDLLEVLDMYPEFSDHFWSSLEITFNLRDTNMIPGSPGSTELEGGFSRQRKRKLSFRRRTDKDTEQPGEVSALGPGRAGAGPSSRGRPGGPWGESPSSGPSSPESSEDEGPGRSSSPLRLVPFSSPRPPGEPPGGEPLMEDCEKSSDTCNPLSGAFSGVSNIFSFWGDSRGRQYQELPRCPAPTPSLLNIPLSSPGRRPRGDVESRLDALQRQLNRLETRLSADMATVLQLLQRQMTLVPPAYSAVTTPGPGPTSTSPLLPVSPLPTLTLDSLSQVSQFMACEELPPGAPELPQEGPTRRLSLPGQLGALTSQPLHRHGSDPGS", "experiment": "primary screen, population patch clamp on CHO cells stably expressing hERG", "units": {"hERG current change (%, negative = inhibition) at 1uM": "%"}, "values": [
      {"compound": "C=CCOc1ccccc1CNCCNC(=O)c1nonc1N.Cl", "hERG current change (%, negative = inhibition) at 1uM": 0.597},
      {"compound": "CC(=O)NC1(C(F)(F)F)C(=O)Nc2c1c(=O)[nH]c(=O)n2CC(C)C", "note": "(centres unmarked)", "hERG current change (%, negative = inhibition) at 1uM": 11.5},
      {"compound": "O=C(CNC(=O)c1ccc(Cl)cc1)NCC(F)(F)F", "hERG current change (%, negative = inhibition) at 1uM": 11.1},
      {"compound": "FC(F)(F)c1nnc2sc(-c3cccs3)nn12", "hERG current change (%, negative = inhibition) at 1uM": 3.44},
      {"compound": "Cc1ccc(C(=O)O)cc1-n1c(=O)n(Cc2ccccc2)c(=O)c2[nH]cnc21", "hERG current change (%, negative = inhibition) at 1uM": 11.5},
      {"compound": "Cc1cccn2c(=O)c3cc(C(=O)N4CCC5(CC4)OCCO5)n(C)c3nc12", "hERG current change (%, negative = inhibition) at 1uM": -9.7},
      {"compound": "CCNC(=O)NC(=O)CSc1nc2ccccc2n1CC(C)C", "hERG current change (%, negative = inhibition) at 1uM": -3.13},
      {"compound": "O=C(c1ccco1)N1CCN(Cc2nc3ccc([N+](=O)[O-])cc3c(=O)n2-c2ccccc2F)CC1", "hERG current change (%, negative = inhibition) at 1uM": -39.3},
      {"compound": "Cc1ccc(C(=O)COC(=O)c2c(C)cc(=O)oc2C)cc1[N+](=O)[O-]", "hERG current change (%, negative = inhibition) at 1uM": 5.38},
      {"compound": "CCCn1nc(Oc2nc(SC)nc(N(C)C)n2)ccc1=O", "hERG current change (%, negative = inhibition) at 1uM": -6.02},
      {"compound": "CN(C)S(=O)(=O)c1cccc(C(=O)Nc2cc3c(cc2C(=O)O)OCCCO3)c1", "hERG current change (%, negative = inhibition) at 1uM": 9.57},
      {"compound": "O=C(NCc1ccc2c(c1)OCO2)C1CCC(=O)N1C1CCCCC1", "note": "(centres unmarked)", "hERG current change (%, negative = inhibition) at 1uM": -4.01},
      {"compound": "CCOc1ccc2[nH]c(=O)c(=O)[nH]c2c1", "hERG current change (%, negative = inhibition) at 1uM": -0.103},
      {"compound": "COc1cc(C(=O)NNC(=O)CSc2nnc3ccccn23)cc(OC)c1OC", "hERG current change (%, negative = inhibition) at 1uM": 15.2},
      {"compound": "O=C(NCCOC(=O)c1ccc(F)cc1)c1ccc(F)cc1", "hERG current change (%, negative = inhibition) at 1uM": 4.03},
      {"compound": "O=C(O)CCN1C(=O)C2C3CC(C2C1=O)C1C(c2ccccc2)c2sc(=O)[nH]c2SC31", "note": "(centres unmarked)", "hERG current change (%, negative = inhibition) at 1uM": -2.08},
      {"compound": "CC(=O)Nc1ccccc1NS(=O)(=O)c1ccc(Cl)cc1", "hERG current change (%, negative = inhibition) at 1uM": 3.75},
      {"compound": "COc1cccc(-c2ccnc3[nH]n(-c4ccccc4)c(=O)c23)c1", "hERG current change (%, negative = inhibition) at 1uM": 21.3},
      {"compound": "COc1cc(NC(=O)CSc2nccc(C)n2)c(C)cc1[N+](=O)[O-]", "hERG current change (%, negative = inhibition) at 1uM": 4.63},
      {"compound": "CN(C)CCCn1c(-c2ccccc2)nc(=S)c2c1CCCC2", "hERG current change (%, negative = inhibition) at 1uM": 11.9},
      {"compound": "Cc1ccc(CNC(=O)c2nnc(CS(=O)(=O)c3ccccc3)o2)cc1", "hERG current change (%, negative = inhibition) at 1uM": 8.37},
      {"compound": "C=CCNC(=O)c1onc(CSc2cccc(OC)c2)c1C(=O)NCC=C", "hERG current change (%, negative = inhibition) at 1uM": 18.8},
      {"compound": "CC(=O)Nc1ccc(S(=O)(=O)NNC(=O)c2ccc([N+](=O)[O-])cc2)cc1", "hERG current change (%, negative = inhibition) at 1uM": 9.64},
      {"compound": "CC1CCN(C(=O)CCNC(=O)c2ccccc2)CC1", "hERG current change (%, negative = inhibition) at 1uM": 15.5},
      {"compound": "CSc1ccc(NC(=O)/C=C/C(=O)O)cc1", "hERG current change (%, negative = inhibition) at 1uM": 11.5},
      {"compound": "CCOC(=O)c1cc(-c2csc(Nc3ccccc3Cl)n2)on1", "hERG current change (%, negative = inhibition) at 1uM": 5.25},
      {"compound": "CCCNCC1C(Oc2ccc(Cl)cc2)C(=O)N1c1ccccc1C", "note": "(centres unmarked)", "hERG current change (%, negative = inhibition) at 1uM": -17.4},
      {"compound": "CN(Cc1ccccc1)C(=O)c1cc2cc(F)ccc2[nH]1", "hERG current change (%, negative = inhibition) at 1uM": 12.9},
      {"compound": "CCNC(=O)COC(=O)c1cccc(Br)c1", "hERG current change (%, negative = inhibition) at 1uM": 11.9},
      {"compound": "CCOC(=O)C1CCN(C(=O)c2ccccc2NC(=O)C2=C(C)OCCS2)CC1", "hERG current change (%, negative = inhibition) at 1uM": 15.7},
      {"compound": "O=C(CN(Cc1ccco1)C(=O)CCC(=O)Nc1nccs1)NCc1ccccc1", "hERG current change (%, negative = inhibition) at 1uM": 5.05},
      {"compound": "CC(=O)NCCC(=O)Nc1ccc(F)cc1C", "hERG current change (%, negative = inhibition) at 1uM": 14.5},
      {"compound": "O=C(CSc1nnc(-c2ccncc2)n1-c1ccc(Cl)cc1)Nc1ccc(C(=O)O)cc1", "hERG current change (%, negative = inhibition) at 1uM": 15.5},
      {"compound": "CCOC(=O)[C@H]1[C@H]2COc3ccc(OC)cc3[C@@H]2N2C(=O)CN(Cc3ccc(Cl)cc3)C(=O)[C@@]12C", "hERG current change (%, negative = inhibition) at 1uM": 12.9},
      {"compound": "O=C(NCCSc1ccccc1)c1ccccc1", "hERG current change (%, negative = inhibition) at 1uM": 16.1},
      {"compound": "Cc1cc(C)c2sc(N(CCN(C)C)C(=O)c3ccc4ccccc4c3)nc2c1.Cl", "hERG current change (%, negative = inhibition) at 1uM": 8.52},
      {"compound": "C/C(=N\\NC(=O)c1ccc2c(c1)OCO2)c1cccnc1", "hERG current change (%, negative = inhibition) at 1uM": 18.9},
      {"compound": "c1ccc2c3c(cc(N4CCOCC4)c2c1)OC1(N2CCOCC2)CCCCC1O3", "note": "(centres unmarked)", "hERG current change (%, negative = inhibition) at 1uM": 3.37},
      {"compound": "COc1cccc(NC(=O)COC(=O)COc2cccc3c2OC(C)(C)C3)c1", "hERG current change (%, negative = inhibition) at 1uM": 1.05},
      {"compound": "COc1ccc(CC(=O)N(CCC2=CCCCC2)c2c(N)n(Cc3ccccc3)c(=O)[nH]c2=O)cc1OC", "hERG current change (%, negative = inhibition) at 1uM": 7.08},
      {"compound": "CCOC(=O)C1(Cc2ccc(OC)cc2)CCN(C(=O)c2sc(C)nc2C)CC1", "hERG current change (%, negative = inhibition) at 1uM": 15.2},
      {"compound": "CCOc1ccc(C(=O)c2ccncc2)cc1", "hERG current change (%, negative = inhibition) at 1uM": 17.2},
      {"compound": "COc1ccc(Cl)cc1N1C(=O)c2cccnc2C1=O", "hERG current change (%, negative = inhibition) at 1uM": 14.3},
      {"compound": "CC1CC(C(=O)Nc2ccccc2)C(=O)O1", "note": "(centres unmarked)", "hERG current change (%, negative = inhibition) at 1uM": 13.9}
    ]}
  ]
}
